Laboratory results reported in the RNAGym collection of RNA variant scans (doi:10.1073/pnas.2313332121).
Variants at the background level are over-represented here.

B1: TPR 5TU (parent)
chain: GGAUCUUCUCGAUCUAACAAAAAAGACAAAUCUGCCACAAAGCUUGAGAGCAUCUUCGGAUGCAGAGGCGGCAGCCUUCGGUGGCGCGAUAGCGCCAACGUUCUCAACUAUGACACGCAAAACGCGUGCUCCGUUGAAUGGAGUUUAUCAUG

Variants of: B1
Test: polymerase ribozyme fitness, log enrichment relative to wild type (log ratio); higher = more active; in vitro selection for triplet polymerase activity
Outline: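 Each subunit of a heterodimeric triplet polymerase ribozyme was mutagenized into a library by PCR, transcribed, and subjected to one round of in vitro selection, run in triplicate. Libraries were annealed with a biotinylated primer, the partner subunit and triplets, incubated frozen at −7 °C, and extended constructs were gel-excised, captured on streptavidin beads and recovered by RT-PCR. Input and output libraries were sequenced on Illumina, keeping genotypes with ≥10 input reads and ≥1 read per output. Fitness is log base 2 of genotype enrichment divided by wild-type enrichment, from inverse-variance-weighted replicate averages.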

Polymerase ribozyme fitness (log ratio), ≤ -4.2:
GGAUCUUCUCGAUCUAACAAAAAAGACAAAUCUGCCACAAAGAUUGAGAGCAUCUUCGGAUGCAGAGGCGGCAGCCUUGGGUCGAGCGAUAGUGCCAACGUUCUCAACUAUGACACGCAAAACGCGUGCUCCGUUGAAUGCAGUUUAUCAUG [C43A C79G G83C C85A C93U G141C]
GGAUCUUCUCGAUCUAACAAAAAAGACAAAUCUGCCACAAAGAUUGAGAGCAUCUUCAGAUGCAGAGGCGGCAGCCUUCGGUGGCGCGAUAGCGUCAACGUUCUGAGCUAUGACACGCAAAACGCGUGCUCCGUUAUAUGGAGUUUAUCAAG [C43A G58A C95U C105G A107G G136A A137U U151A]
GGAUCUUCUCGAUCUAACAAAAAAGACAAAUCUGCCACAAAGAUUGAGAGCAUCUUCGGAUGCAGAGGAGGCAGCCUUCGGUGGCGCGAUGACGCCAACGUUCUCAACUAUGACACGCAAAACGCGUGCUCCGUUGAAUCGAGUUUAUCAUG [C43A C69A A91G G92A G140C]
GGAUCUUCUCGAUCUAACAAAAAAGACAAAUCUGCCACAAAGAUUGAGAGCAUCUUCGGAUGCAGAGGCGGCAGCCUUCCGUGGCGCGAUAGCGCCAACGUUCUCAACUAUGACACGCAAAACGCGUGCUCCGUUGAAUGGAGUUUAUCAUG [C43A G80C]
GGAUCUUCUCGAUCUAACAAAAAAGACAAAUCUGCCACAAAGAUUGAGAGCAUCUUCGGAUGCAGAGCCGGCAGCCUUCGGUGGCGCGAUAGUGCCAACGUUCUCAACUAUGACACGCAAAACGCUUGCUCGGUUGAAUGGAGUUUAUCAUG [C43A G68C C93U G126U C132G]
GGAUCUUCUCGAUCUAACAAAAAAGACAAAUCUGCCACAAAGAUUGAGAGCAUCUUCGGAUGCAGAGGCGGCAGCCUUCGGUGCCGCGAUAGCGCCAACGUUCUCAACUAUGACACGCAAAACGCGUGCUCCGUUGAAUGGAGUUUAUCAUG [C43A G84C]
GGAUCUUCUCGAUCUAACAAAAAAGACAAAUCUGCCACAAAGAUUGAGAGCAUCUUCGGAUGCAGAGGCGGCAGCCUUCGGUGGCUCGAUAGCGCCAACGUUCUCAACUAUGACACGCAAAACGCGUGCUCCGUUGAAUGGAGUUUAUCAUG [C43A G86U]
GGAUCUUCUCGAUCUAACAAAAAAGACAAAUCUGCCACAAAGAUUGAGAGCAUCUUGGGAUGCAGAGGAGGCAGCCUUCGGUGGCGCGAUUGCGCCAACGUUCUCAACUAUGACACGCAAAACGCGUGCUCCGUUGAGUGGAUUUUAUCAUG [C43A C57G C69A A91U A138G G143U]
GGAUCUUCUCGAUCUAACAAAAAAGACAAAUCUGCCACAAAGAUUGAGAGCAUCUUCGGAUGCAGAGGCGGCAGCCUUCGGUCGCGCGAGAGCGCCAACGUUCUCAACUAUGACACGCAAAACGCGUGCUCCGUUGAAUUGAGUUUAUCAUG [C43A G83C U90G G140U]
GGAUCUUCUCGAUCUAACAAAAAAGACAAAUCUGCCACAAAGAUUGAGAGCAUCUUGGGAUGCAGAGGCGGCAGCCUUCGGUGACGCGAUAGCGCCAACGUUCUCAACUAUGACACGCAAAACGCGUGCUCCGUUGAAUGGAGUUUAUCAUG [C43A C57G G84A]
GGAUCUUCUCGAUCUAACAAAAAAGACAAAUCUGCCACAAAGAUUGAGAGCAUCUUCGGAUGCAGAGGCGGCAGCCUUCGGUGGCGCGAUAACGCCAACGUUCUCAACUAUGACACGAAAAACGCGUGCUCCGUUGAAUGGAGUUUAUCAUG [C43A G92A C118A]
GGAUCUUCUCGAUCUAACAAAAAAGACAAAUCUGCCACAAAGAUUGAGAGCAUCUUCGGAUGCAGAGGCGGCAGCCUUGGGUGGUGCGAUAGCGCCAACGUUCUCGACUAUGACACGUAAAACGCGUGCUCCGUUGAAUGCAGUUUAUCAUG [C43A C79G C85U A106G C118U G141C]
GGAUCUUCUCGAUCUAACAAAAAAGACAAAUCUGCCACAAAGAUUGAGAGCAUCUUCCGAUGCAGAGGCGGUAGCCUUCGGUGGCGCGAUAGCUCCAACGUCCUCAACUAUGACACGCAAAACGCGUGCUCCGUUGAAAGGAGUUUAUCAUG [C43A G58C C72U G94U U102C U139A]
GGAUCUUCUCGAUCUAACAAAAAAGACAAAUCUGCCACAAAGAUUGAGAGCAUCUUCGGAUGCAGAGGCGGCAGCCUUCCGUGGCGCGAUAGCUCCAACGUUCUCAACUAUGACACGCAAAACGCGUGCUCCGUUGAAUGGAGUUUAUCAUG [C43A G80C G94U]
GGAUCUUCUCGAUCUAACAAAAAAGACAAAUCUGCCACAAAGAUUGAUAGCAUCUUCGGAUGCAGAGGCGGCAGCCUCCGGUAGCGCGAGAGCGCCAACGUUCUCAACUAUGACACGCAAAACGCGUGCUCCGUUGAAUGGAGUUUAUCAUG [C43A G48U U78C G83A U90G]
GGAUCUUCUCGAUCUAACAAAAAAGACAAAUCUGCCACAAAGAUUGAGAGCAUCUUCGGAUGCAGAGGCGGCAGCCUUCGGUGGCGAGGUAGUGCCAACGUUCUCAACUAUGACACGCAAAACGCGUGCUCCGUGGAAUGGAGUUUAUCAUG [C43A C87A A89G C93U U135G]
GGAUCUUCUCGAUCUAACAAAAAAGACAAAUCUGCCACAAAGAUUGAGAGCAUGUUCGGAUGCAGAGGCGGCACCCUUCGGUGGCGCGCUAGCGCCAACGUUCUCAACUAUGACGCGCAAAACGCGUGCUCCGUUGAAUGGAGUUUAUCAUG [C43A C54G G74C A89C A115G]
GGAUCUUCUCGAUCUAACAAAAAAGACAAAUCUGCCACAAAGAUUGAGAGCAUCUUCGGAUGUAGAGGCGGCAGCCUUCGGUGGCGCGAAAGCGCCAACGUUCUCAACUAUGACACGCAAAACGCGUGCUCCGUUGAAUGGAGUUUAUCAUG [C43A C63U U90A]
GGAUCUUCUCGAUCUAACAAAAAAGACAAAUCUGCCACAAAGAUUGAGAGCAUCUUCGGAUGCAGAGGCGGCAGCCUUCGGUGGCGCGAUUGCGCCAACGUUCUCAACUAUGACACGCAAAACGCGUGCUCCGUUGAAUCGAGUUUAUCCUG [C43A A91U G140C A150C]
